Experimental data from paper PMC12345631.
These are yes or no findings as the source states them, for the method shown. Binding seen in cells or lysates may run through a third protein. Where a sequence is shown, tags or fusion partners need not be part of it.

Columns and labels:
Test in all cases: co-IP; anti-Flag (M2) on Dynabeads Protein G, 1–2 h at 4°C; lysis in 50 mM HEPES pH 7.5, 150 mM NaCl, 1 mM EDTA, NP-40; washes with 0.2% NP-40; blot for HA; cells in YPD, YPL, SD or SL medium; wild-type or mkt1∆ background; CEN.PK and S288C
[1] = biological target: T1, Pbp1Δ500-514 (Flag-tagged) (S. cerevisiae) (UniProt P53297)
T1 sequence: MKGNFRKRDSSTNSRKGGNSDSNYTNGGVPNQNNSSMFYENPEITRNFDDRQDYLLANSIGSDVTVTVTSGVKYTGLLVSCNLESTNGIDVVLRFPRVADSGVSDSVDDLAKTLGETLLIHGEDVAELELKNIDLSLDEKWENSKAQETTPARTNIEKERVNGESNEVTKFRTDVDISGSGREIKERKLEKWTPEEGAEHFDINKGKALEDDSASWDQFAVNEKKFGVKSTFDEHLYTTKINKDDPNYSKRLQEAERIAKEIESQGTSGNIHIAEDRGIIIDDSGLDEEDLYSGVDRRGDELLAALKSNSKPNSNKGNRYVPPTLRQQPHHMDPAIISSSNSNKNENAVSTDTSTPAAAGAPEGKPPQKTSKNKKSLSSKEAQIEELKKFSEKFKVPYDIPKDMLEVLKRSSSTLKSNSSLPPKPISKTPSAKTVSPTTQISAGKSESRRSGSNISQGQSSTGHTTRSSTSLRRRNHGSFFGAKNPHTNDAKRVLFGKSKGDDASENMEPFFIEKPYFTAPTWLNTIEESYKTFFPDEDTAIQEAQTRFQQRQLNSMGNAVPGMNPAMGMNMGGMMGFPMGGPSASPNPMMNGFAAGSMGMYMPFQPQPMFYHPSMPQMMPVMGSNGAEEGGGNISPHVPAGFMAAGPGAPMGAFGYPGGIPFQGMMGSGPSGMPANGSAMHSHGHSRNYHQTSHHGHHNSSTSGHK

[2] = biological target: T2, Pbp1Δ491-513 (Flag-tagged) (S. cerevisiae) (UniProt P53297)
T2 sequence: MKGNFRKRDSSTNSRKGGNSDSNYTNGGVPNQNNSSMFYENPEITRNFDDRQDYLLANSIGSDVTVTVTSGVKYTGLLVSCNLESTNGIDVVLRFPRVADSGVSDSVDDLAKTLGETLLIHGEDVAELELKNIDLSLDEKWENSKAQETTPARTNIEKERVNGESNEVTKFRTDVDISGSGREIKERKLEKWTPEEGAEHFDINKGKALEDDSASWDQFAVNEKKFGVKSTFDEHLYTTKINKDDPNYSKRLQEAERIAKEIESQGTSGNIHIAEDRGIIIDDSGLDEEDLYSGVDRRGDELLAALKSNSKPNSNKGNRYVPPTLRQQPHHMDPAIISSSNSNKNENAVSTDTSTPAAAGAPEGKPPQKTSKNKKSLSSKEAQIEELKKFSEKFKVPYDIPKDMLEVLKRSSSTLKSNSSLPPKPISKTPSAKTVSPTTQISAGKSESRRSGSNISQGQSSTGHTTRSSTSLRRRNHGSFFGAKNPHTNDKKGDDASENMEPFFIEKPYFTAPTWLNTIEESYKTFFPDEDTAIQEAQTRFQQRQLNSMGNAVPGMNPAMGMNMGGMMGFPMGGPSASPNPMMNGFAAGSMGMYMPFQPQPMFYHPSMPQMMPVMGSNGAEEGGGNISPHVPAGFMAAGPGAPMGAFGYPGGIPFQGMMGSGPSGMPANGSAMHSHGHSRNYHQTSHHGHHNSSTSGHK

[3] = biological target: T3, Pbp1Δ500-503 (Flag-tagged) (S. cerevisiae) (UniProt P53297)
T3 sequence: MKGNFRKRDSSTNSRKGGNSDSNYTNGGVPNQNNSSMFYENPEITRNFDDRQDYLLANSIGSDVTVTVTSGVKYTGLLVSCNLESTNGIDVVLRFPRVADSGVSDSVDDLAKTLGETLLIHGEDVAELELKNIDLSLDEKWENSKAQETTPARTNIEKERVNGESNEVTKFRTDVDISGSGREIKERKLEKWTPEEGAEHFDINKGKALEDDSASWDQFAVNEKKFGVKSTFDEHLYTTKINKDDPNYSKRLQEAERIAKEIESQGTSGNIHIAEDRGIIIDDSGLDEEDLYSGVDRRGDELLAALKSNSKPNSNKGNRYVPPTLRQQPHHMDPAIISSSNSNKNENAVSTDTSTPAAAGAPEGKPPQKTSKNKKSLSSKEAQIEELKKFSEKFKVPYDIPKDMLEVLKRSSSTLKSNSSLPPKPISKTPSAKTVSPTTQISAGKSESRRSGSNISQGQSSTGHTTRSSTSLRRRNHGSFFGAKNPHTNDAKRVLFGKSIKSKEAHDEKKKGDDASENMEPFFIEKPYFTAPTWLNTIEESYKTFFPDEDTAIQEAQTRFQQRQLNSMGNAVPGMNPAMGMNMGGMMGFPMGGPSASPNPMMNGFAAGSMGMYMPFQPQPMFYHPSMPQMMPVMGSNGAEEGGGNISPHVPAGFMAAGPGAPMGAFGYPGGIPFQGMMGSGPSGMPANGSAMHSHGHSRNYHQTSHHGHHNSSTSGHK

binding [1]: no binding | binding [2]: no binding | binding [3]: no binding
B1: Mkt1-HA (protein, UniProt P40850 1-830)
chain: MAIKSLESFLFERGLVGSYAIEALNNCTLGIDVNHYVSRLLTNKREQYLDAIGGFPTSLKMYLESDLKIFKDFNITPIFVFNGGLTYNQLEASGHFTAASASASISSTTTSSSGTNATTRSNTESVLLQRSRGWTQWNNLISSNQNSYIDQPIQPQEPFRHNTTIDSKAYQNDLIAYFIEHGYMYQVAPYSSWFQLAYLLNSAYIDAIYGPTDCLMLDCVDRFILGMEFPNKEFRFIDRSRVMKDLGCTHEEFIDIAMAVGNDLQPTTLPPLQIYPVPQLFDIALEMVLNTGTNFYAYQLSTTLQNDSKENIQNYQRGISALRYMPVLKDTGKVELFVQEIVVSEEDSEKNNKDGKKSNLSSPSSASSSASPATTVTKNASEKLTYEKSSTKEVRKPRDIPNDVHDFIGQMLPHEYYFYRSIGLVTGKLFDAIVTGVYPEEPPLGGGSSTSYRKLVSKSVEIFKNKEINLLTQPINRYYQIKQIKQVKWYAANEPTTLTNRMSPSMFETINHLIVKTETSDEKEFSISEFITTINGSSNMAKDFISEKVIFPNSVPIESKLNSPFNLLSTNFLRLLVLLEFFTFDFKEKLLEPTRWGEVFLKLNELNIDSKYHESVIIFLVFLKCDVLKLDEEVQPPAPSALSQATLRSYPEESLYVLLITRVLTLFQVDQKPSNYHGPIDKKTLIFRDHLSFIKENLNELFEAVLISSLTSGEFNRLSLDNFGWARKIVRYLPFKLDSPNTIMAMMWEFFLQKYLHNGNAKNDALSLVATEFNTYKSTPNLDEQFVESHRFLLEISKVMQELNAAKLIDENVFKLFTKAVEFTTTALSS
